In the RNAGym collection of RNA variant scans (doi:10.1073/pnas.2313332121):
Variants at the background level are over-represented here.

B1: TPR 5TU (parent)
chain: GGAUCUUCUCGAUCUAACAAAAAAGACAAAUCUGCCACAAAGCUUGAGAGCAUCUUCGGAUGCAGAGGCGGCAGCCUUCGGUGGCGCGAUAGCGCCAACGUUCUCAACUAUGACACGCAAAACGCGUGCUCCGUUGAAUGGAGUUUAUCAUG

Variants of: B1
Experiment: polymerase ribozyme fitness, log enrichment relative to wild type (log ratio); higher = more active; in vitro selection for triplet polymerase activity
Outline: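 PCR was used to build mutant libraries for each subunit of a heterodimeric triplet polymerase ribozyme, which were then transcribed. A single in vitro selection round, in triplicate, used a frozen incubation at −7 °C and recovered extended constructs by gel excision, streptavidin beads and RT-PCR. Fitness is the logarithm of genotype enrichment relative to wild-type enrichment, averaged over replicates with inverse-variance weights. The logarithm is base 2, and after Illumina sequencing only genotypes with ≥10 input reads and ≥1 read per output were kept.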

Polymerase ribozyme fitness (log ratio), ≤ -4.2:
A12U U55G C99A C131A
U13A A16G G86U C99U G152A
U13A A20C A26U A29U A47C C85A A98U U127C
U13A A20G A21G G34A A52G
U13A A26G A40G G67C G81A G84U C85A A106U C108U C114A G143C U145A
U13A A28U C43U U90C G92U C93U G141U
U13A A37G C99G C108A
U13A A41G C87A
U13A A49G U53A U55A A115G
U13A A52C C69A U78A G92C C114U
U13A A66G C79U C87A G92C U101G U109C U145G
U13A C27A A52G G136U
U13A C27U A41U C76A
U13A C51U U82A A91U G100A G143A
U13A C54G U101G G117A
U13A C85G A106U A122C G136C
U13A C87A
U13A G42C G100A C118U
U13A G58A C63U A64U U82G C85G C116U
U13A U33G G70U G83U C103G C131G
U13A U53C C79U C87A
U13A U55A C57U G70A A91G A97G G128U G152A
U13C A16G C36A A37C C57A G67A C72U U102C
U13C A17G A30U A41C U77G U90C U151G
U13C A19C G50A U56A C87A
U13C A20C A47U C118G A142C
U13C A20U A41U A91G C96A C129G U148A
U13C A26U C72A U101A C129U
U13C A28C U61A A66U G70C U77A G81U G92U
U13C A29C G48A A49G
U13C A39C U53A A60G C93A A98C A107G
U13C A47C C96A C149G
U13C C18G U55A C87A
U13C C18U U55G C76U G81C C131G
U13C C36A C95G G141A U146C
U13C C43U C76G U104C A122G
U13C C54U A89U C95G C99A
U13C C93U C96G C149U
U13C G48C G50U G100U A120U U134C
U13C G65C U82A G117U
U13C G84U C96U G141U C149G
U13C G88A G94C C99U
U13C U15C A26U C69U A73U G92A
U13C U15G A23C U55A G126A
U13C U31G C32G G34A A39U G68U C118U
U13G A20G C57U C87G U151G
U13G A21C G48A U55C G81A G92C C114U G126A
U13G A21U C32A C38A U90C A97G A110G
U13G A22U C85U G100C C125G
U13G A26C A37U C95U U148G
U13G A26U G46A U55A C57U G58A C96U G136U
U13G A28C A47G C57U G70C C96U
U13G A29G C87U G94C U127A U130C A150G
U13G A37U U56A C93A A113G U145G
U13G A41G G42A U82C U135C G141U
U13G A47C C96U C131A
U13G A47G A60C A73G G86C G140U U148A
U13G A47U C57U G86U C95G C103G C118U C123G G128A
U13G A52G G71U G84C U148C
U13G A66U G83U
U13G A107C U145A
U13G A107U
U13G C14A A19U A22U C87G C114U
U13G C14U A28G A40U C51A A52U U55A C57A G71C C85G C114G
U13G C18G A52G C57A G94U G117U A121C C131G
U13G C27A C36U A47U G58U C69G C93G C96G U148A
U13G C27U G86A
U13G C32G U44A A91C C99G G133A
U13G C43U U56G C76G C87G U90A C123G
U13G G25C A40U A73G A91C A97U U151G G152A
U13G G46U C87U C105U A142G
U13G G67C C93A
U13G G70A A137G
U13G G70U C93U C103G C131U A137G U146A
U13G U33C C36A C93A U145C
U13G U33G G88C
U13G U44A G67C U82G C95A C96U C103A G141A
U13G U56A C75U C95A C96G U104G G133U
U13G U148G
C14A A17U G92U A107G
C14A A19G A39C U90G C95G U144A
C14A A24U U90A C93A A107G U111G C114G G124U
C14A A26U A40U C63G G140U
C14A A28C C51G G94C A98G A110G
C14A A28U U33A C38G C103G C105U
C14A A29C A52G C85U C96U C108G C131A U135A U146A
C14A A40G C69G A91G
C14A A40G C132U A138C
C14A A40U A52C C116A A150G
C14A A41C U135C
C14A A49C A52U C72G G84U C87U C123G
C14A A49C G80A G88C
C14A A49U C76A C79A C96U C103A C116G G117A A121G A122U U139C C149G
C14A A52C C69U
C14A C18U G46A G67A A73G C96G G124C
C14A C36A U90G G100A A122C
C14A C51A U55A A97C C114A A115U C116G U145G
C14A C63U G124A G126U A138G G140A
C14A C69U C85U G100C G117C
C14A C72A G140U
C14A G42U A66G C93A G117A
C14A G46C U55A G67A C87G G126A C132G
C14A G65A C87A G140C
C14A G67C A73G C87A A97C G143A
C14A G70C C87G
C14A G71A C123U G126A
C14A G84A C118A C125A A137U C149U
C14A U31C G42U U44A C79G C95G C105A A119C
C14A U45G C96A C129G
C14G A16U A17C G117U G141C
C14G A17C C43G C85U A91U U151G
C14G A17C G58A A64U U90G
C14G A19C A23C A49C A91U A137G G141A U146C
C14G A19U G50C U56A G92U
C14G A20U A39U G92U G133C U134C C149G
C14G A23G U44G G83C
C14G A24C A60G A66C
C14G A24G U53A C85A U90A
C14G A26U A39U A52G C63U A113U G141U
C14G A28C
C14G A28U C54U G84A U144G
C14G A29G C93G
C14G A29G G80C C87U
C14G A29G U90G A98U U109C
C14G A29U C76G U148A
C14G A30C G50A G136U
C14G A30U A52C C87U C96G
C14G A37G C43G C75G G86A C105A U146C
C14G A39C C75G C85A G133A
C14G A39G C57G C93G A121U
C14G A40G A41G U77G C79U G84U U102G U148G
C14G A41G G80U A98C C99U C103G
C14G A41U G62A U78A C99G
C14G A49C
C14G A49U A52G G58C
C14G A52C A60G G67A C85U C93U G133A
C14G A52G U55A C85A G133U
C14G A52U G88C A110G
C14G C18U A21U A24U G50C C72U C118G A122U
C14G C27A A49G U82G
C14G C27U G74A C85U
C14G C32A C85A C93U C125G
C14G C32G G50U G92C U104G G117U
C14G C35A A91U A138U
C14G C35A G84A C87U
C14G C35G A64U U82A G84A C118U
C14G C35G C96G G133U G143A
C14G C38A C96U C114A
C14G C51G U56G G94U G124A A147G A150C
C14G C51U C72G C85G C132U
C14G C69G A91G A137G
C14G C85G
C14G C87U A91G U102C G141C
C14G C87U A91U C99U
C14G G25C G50C G83U C103A G117U C118G U135C
C14G G25U U55G C93G C105U
C14G G42U G50C G92A U111G U151G
C14G G59A G136U
C14G G68U G86U
C14G G71C G80A C85G G94U C116U A120G
C14G G81U A97U A106U
C14G G83U A97U U144A A150U
C14G G86A U101C C108U C125U
C14G G86C A147G
C14G G86U C87A C95A U104A
C14G U44G C75G G83U U151C
C14G U45A C76U C85G C103A U139A G143U
